# Source: PubChem BioAssay (NCATS)
# Where “and” joins values, the source holds several entries; their conditions need not be identical. Equal values may be shown once. Inconclusive results, whose numbers are uncertain, are shown with a selection of clear calls. For part of these data: A potency beside an inconclusive call is a rough fit, not a confirmed value. Calls of active or inactive are those of the source. Calls follow the shape of the dose curve; as a rule, active = well fitted curve in the direction sought with a large enough effect; inconclusive = small, poorly fitted or top-dose-only effect, or another doubt; inactive = no such curve, though single readings can be large; an effect the other way counts as inactive or inconclusive.
# What was measured:
# [1] = qHTS of pediatric cancer cell lines to identify multiple opportunities for drug repurposing: Primary screen for BT-37 cells (AID 1347094); also: potency is read from the fitted curve at half-maximal effect;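 as to activity change, negative = cytotoxic: plate controls were DMSO for no effect and bortezomib for full effect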
# Method in brief: (§1)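 Cells plated at 500-1,000/well in growth medium, compounds added after 5 h. MIPE tested at 11 points (from 0.78 nM), NPC at 8 points (from 0.59 nM). CellTiter-Glo luminescence after 48 h; concentration-response curves from primary screen.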
# [2] = qHTS of pediatric cancer cell lines to identify multiple opportunities for drug repurposing: Primary screen for BT-12 cells (AID 1347101); also: nearly all actives have a fitted effect of over 25% in size; also: potency is read from the fitted curve at half-maximal effect;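 as to activity change, negative = cytotoxic: plate controls were DMSO for no effect and bortezomib positive control for full effect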
# Method in brief: (§2)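 Cells (500-1,000/well) rested 5 h, then received compounds for 48 h; metabolically active cells were measured by CellTiter-Glo luminescence. Final concentrations spanned up to 46 µM (MIPE, 11-point) or 0.59 nM-46 µM (NPC, 8-point) in primary screens, 11-point in follow-ups.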
# [3] = qHTS of pediatric cancer cell lines to identify multiple opportunities for drug repurposing: Primary screen for OHS-50 cells (AID 1347103); also: nearly all actives have a fitted effect of over 40% in size; also: potency is read from the fitted curve at half-maximal effect;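 as to activity change, negative = cytotoxic: plate controls were DMSO neutral control for no effect and bortezomib positive control for full effect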
# Method in brief: as §2
# [4] = qHTS of pediatric cancer cell lines to identify multiple opportunities for drug repurposing: Primary screen for RD cells (AID 1347104); also: nearly all actives have a fitted effect of over 55% in size; also: potency is read from the fitted curve at half-maximal effect;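 as to activity change, negative = cytotoxic: plate controls were DMSO for no effect and bortezomib for full effect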
# Method in brief: as §1
# [5] = qHTS of pediatric cancer cell lines to identify multiple opportunities for drug repurposing: Primary screen for control Hh wild type fibroblast cells (AID 1347106); also: nearly all actives have a fitted effect of over 55% in size; also: potency is read from the fitted curve at half-maximal effect;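 as to activity change, negative = cytotoxic: % is scaled to controls: 0 for no effect and ±100 for the full control effect; a drop in luminescence marks cytotoxicity and a rise apparent proliferation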
# Method in brief: (§3)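 Viability after 48 h compound treatment at 37C, 500-1,000 cells/well, read as ATP luminescence with CellTiter-Glo. Primary screens used 11-point (MIPE, 0.78 nM-46 µM) or 8-point (NPC, 0.59 nM-46 µM) final concentrations; follow-up screens used 11-point dilutions.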
# [6] = qHTS of pediatric cancer cell lines to identify multiple opportunities for drug repurposing: Primary screen for Rh30 cells (AID 1347107); also: nearly all actives have a fitted effect of over 75% in size; also: potency is read from the fitted curve at half-maximal effect; as to activity change, negative = cytotoxic: % is scaled to controls: 0 for no effect and ±100 for the full control effect
# Method in brief: as §3
# [7] = qHTS of pediatric cancer cell lines to identify multiple opportunities for drug repurposing: Primary screen for U-2 OS cells (AID 1347096); also: nearly all actives have a fitted effect of over 50% in size; also: potency is read from the fitted curve at half-maximal effect;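 as to activity change, negative = cytotoxic: plate controls were DMSO wells for no effect and bortezomib positive control wells for full effect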
# Method in brief: as §3
# [8] = qHTS of pediatric cancer cell lines to identify multiple opportunities for drug repurposing: Primary screen for Saos-2 cells (AID 1347097); also: nearly all actives have a fitted effect of over 40% in size; also: potency is read from the fitted curve at half-maximal effect; as to activity change, negative = cytotoxic: % is scaled to controls: 0 for no effect and ±100 for the full control effect
# Method in brief: as §1
# [9] = qHTS of pediatric cancer cell lines to identify multiple opportunities for drug repurposing: Primary screen for SK-N-SH cells (AID 1347098); also: nearly all actives have a fitted effect of over 65% in size; also: potency is read from the fitted curve at half-maximal effect;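 as to activity change, negative = cytotoxic: DMSO served as neutral control and bortezomib at 2.3 µM as positive control; % is scaled to controls: 0 for no effect and ±100 for the full control effect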
# Method in brief: as §2
# [10] = qHTS of pediatric cancer cell lines to identify multiple opportunities for drug repurposing: Primary screen for Rh18 cells (AID 1347102); also: potency is read from the fitted curve at half-maximal effect; nearly all actives have a fitted effect of over 65% in size
# Method in brief: as §3
# [11] = qHTS of pediatric cancer cell lines to identify multiple opportunities for drug repurposing: Primary screen for MG 63 (6-TG R) cells (AID 1347105); details: MG 63 (6-TG R) viability, CellTiter-Glo, 48 h; activity change, negative = cytotoxic: at 46 µM (top of the series); also: nearly all actives have a fitted effect of over 50% in size; also: potency is read from the fitted curve at half-maximal effect; as to activity change, negative = cytotoxic: % is scaled to controls: 0 for no effect and ±100 for the full control effect
# Method in brief: as §1
# [12] = qHTS of pediatric cancer cell lines to identify multiple opportunities for drug repurposing: Primary screen for Rh41 cells (AID 1347108); also: nearly all actives have a fitted effect of over 70% in size; also: potency is read from the fitted curve at half-maximal effect;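 as to activity change, negative = cytotoxic: luminescence drop marks cytotoxic hits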
# Method in brief: as §1
# [13] = qHTS of pediatric cancer cell lines to identify multiple opportunities for drug repurposing: Primary screen for NB-EBc1 cells (AID 1347095); also: potency is read from the fitted curve at half-maximal effect;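 as to activity change, negative = cytotoxic: plate controls were DMSO neutral control for no effect and bortezomib for full effect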
# Method in brief: as §1
# [14] = qHTS of pediatric cancer cell lines to identify multiple opportunities for drug repurposing: Primary screen for NB1643 cells (AID 1347099); also: nearly all actives have a fitted effect of over 50% in size; also: potency is read from the fitted curve at half-maximal effect;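 as to activity change, negative = cytotoxic: plate controls were DMSO neutral control for no effect and bortezomib positive control for full effect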
# Method in brief: as §1
# [15] = qHTS of pediatric cancer cell lines to identify multiple opportunities for drug repurposing: Confirmatory screen for NB1643 cells (AID 1347109); details: NB1643 neuroblastoma cell viability; activity change, negative = cytotoxic: at 45.9 µM (top of the series); also: potency is read from the fitted curve at half-maximal effect; nearly all actives have a fitted effect of over 45% in size
# Method in brief: as §3
# [16] = qHTS of pediatric cancer cell lines to identify multiple opportunities for drug repurposing: Primary screen for LAN-5 cells (AID 1347100); details: LAN-5 neuroblastoma viability, CellTiter-Glo luminescence, 48 h; activity change, negative = cytotoxic: at 46 µM (top of the series);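 also: plate controls were DMSO neutral control for no effect and bortezomib positive control for full effect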
# Method in brief: as §3
# Tags tell the direction and shape of the fitted curve.
smiles,measurement,setting,value
Cc1cn([C@H]2C[C@H](N=[N+]=[N-])[C@@H](CO)O2)c(=O)[nH]c1=O,Potency,[1],"inconclusive: 21.7 µM [cytotoxic, partial curve]"
same,Potency,[2],"inconclusive: 43.2 µM [cytotoxic, single point]"
same,Potency,[3],inactive
same,Potency,[4],inactive
same,Potency,[5],"inconclusive: 33.2 µM [cytotoxic, single point]"
same,Potency,[6],inactive
COc1cccc2c1C(=O)c1c(O)c3c(c(O)c1C2=O)C[C@@](O)(C(=O)CO)C[C@@H]3O[C@H]1C[C@H](N)[C@@H](O)[C@H](C)O1,Potency,[7],"inconclusive: 2.96 µM [cytotoxic, full curve, poor fit]"
same,Potency,[8],active: 2.35 µM
same,Potency,[9],active: 0.429 µM
same,Potency,[2],active: 0.685 µM
same,Potency,[10],active: 469 nM
same,Potency,[4],active: 0.935 µM
same,Potency,[11],active: 1.48 µM
same,Potency,[5],"inconclusive: 1.66 µM [cytotoxic, full curve]"
same,Potency,[12],active: 0.662 µM
O=C(C=Cc1c(C(=O)O)[nH]c2cc(Cl)cc(Cl)c12)Nc1ccccc1,Potency,[13],inactive
same,Potency,[12],inactive
Nc1nc(N)nc(-c2cc(Cl)ccc2Cl)n1,Potency,[13],inactive
same,Potency,[14],inactive
same,Potency,[2],inactive
same,Potency,[3],inactive
same,Potency,[15],"inconclusive: 6.57 µM [cytotoxic, partial curve, poor fit]"
Clc1ccccc1CN1CCc2sccc2C1,Potency,[1],"active: 1.53 µM and inconclusive: 43.7 µM [cytotoxic, partial curve, poor fit]"
same,Potency,[13],"inconclusive: 13.2 µM [cytotoxic, partial curve]"
same,Potency,[7],inactive
same,Potency,[8],"active: 1.48 µM and inconclusive: 23.7 µM [cytotoxic, single point]"
same,Potency,[9],"inconclusive: 24.1 µM [cytotoxic, single point]"
same,Potency,[14],"inconclusive: 18.8 µM [cytotoxic, partial curve, poor fit]"
same,Potency,[2],"inconclusive: 6.92 µM [cytotoxic, single point]"
same,Potency,[4],"inconclusive: 2.35 µM [cytotoxic, full curve]"
Cc1ccc(S(=O)(=O)OCC(=O)Nc2ccc(C(=O)O)c(O)c2)cc1,Potency,[1],inactive
same,Potency,[13],inactive
same,Potency,[9],"inconclusive: 24.1 µM [cytotoxic, partial curve]"
same,Potency,[3],"inconclusive: 17.2 µM [cytotoxic, partial curve]"
same,Potency,[4],"inconclusive: 41.8 µM [cytotoxic, single point]"
same,Potency,[6],"inconclusive: 18.7 µM [cytotoxic, partial curve]"
same,Potency,[12],"inconclusive: 16.6 µM [cytotoxic, partial curve]"
CC(c1cc2ccccc2s1)N(O)C(N)=O (stereo not drawn),Potency,[13],inactive
same,Potency,[6],inactive
same,Potency,[12],inactive
Nc1ncn([C@H]2C[C@H](O)[C@@H](CO)O2)c(=O)n1,Potency,[1],"inconclusive: 1.95 µM [cytotoxic, partial curve]"
same,Potency,[13],"inconclusive: 5.9 µM [cytotoxic, partial curve]"
same,Potency,[8],"inconclusive: 26.6 µM [cytotoxic, single point]"
same,Potency,[2],"inconclusive: 6.85 µM [cytotoxic, partial curve]"
same,Potency,[4],"inconclusive: 10.6 µM [cytotoxic, partial curve, poor fit] and inconclusive: 10.5 µM [cytotoxic, partial curve, poor fit]"
same,Potency,[6],"inconclusive: 7.43 µM [cytotoxic, partial curve]"
same,Potency,[12],inactive
C=CC1=C(C(=O)O)N2C(=O)[C@@H](NC(=O)C(=NO)c3csc(N)n3)[C@H]2SC1,Potency,[1],inactive
same,Potency,[8],inactive
same,Potency,[9],inactive
same,Potency,[14],inactive
Fc1ccc(CNc2ncnc3ccc(F)cc23)cc1,Potency,[1],"inconclusive: 12.2 µM [cytotoxic, partial curve]"
same,Potency,[13],"inconclusive: 4.69 µM [cytotoxic, full curve]"
same,Potency,[8],"inconclusive: 18.7 µM [cytotoxic, partial curve]"
same,Potency,[9],"inconclusive: 15.2 µM [cytotoxic, partial curve]"
same,Potency,[16],inactive
same,Potency,[4],"inconclusive: 18.7 µM [cytotoxic, partial curve]"
same,Potency,[12],"inconclusive: 10.5 µM [cytotoxic, partial curve]"
CN[C@H]1[C@@H](O[C@@H]2[C@H](O[C@@H]3[C@@H](O)[C@@H](O)[C@@H](N=C(N)N)[C@@H](O)[C@@H]3N=C(N)N)O[C@H](C)[C@@]2(O)C=O)O[C@@H](CO)[C@@H](O)[C@H]1O,Potency,[8],"inconclusive: 4.74 µM [cytotoxic, partial curve]"
same,"activity change, negative = cytotoxic",[14],inactive: 3.56% [at 9.22 µM]
same,"activity change, negative = cytotoxic",[2],inactive: -1.02% [at 11.5 µM]
same,"activity change, negative = cytotoxic",[11],inactive: -18.1% [at 9.22 µM]
same,"activity change, negative = cytotoxic",[5],inactive: 10.5% [at 9.22 µM]
